# In PubChem BioAssay AID1346428 (National Center for Advancing Translational Sciences (NCATS), 2018):
# Hit rate of the full screen: of about 48,000 compounds, about 1,200 (2.5%) were called active. Another 2% or so got no clear call; they are omitted.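 How the source made its calls: active means activation of at least 60% and not above a set upper limit (about 1 call in 100 departs from these limits); inconclusive means activation of 40% to 60%, or above that upper limit; inactive means activation under 40%.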 The list shows a part of the results.
# Target: Probable G-protein coupled receptor 32 (Homo sapiens) (UniProt O75388)
# Assay: qHTS for Agonists of Human Resolvin D1 Receptor DRV1; further: 0% is about no effect
# Details: CHO-K1 GPR32 beta-arrestin PathHunter luminescence, 90 min; at 76.9 µM; hits give high values; zero percent set by DMSO-only wells
# Outline: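 Luminescent readout of beta-Gal complementation quantifies ligand-induced beta-arrestin association with GPR32 in CHO-K1 cells; 90 min compound incubation at 37 °C, detection 1 h at room temperature.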
# Chain of UniProt O75388 (O75388 whole entry, looked up): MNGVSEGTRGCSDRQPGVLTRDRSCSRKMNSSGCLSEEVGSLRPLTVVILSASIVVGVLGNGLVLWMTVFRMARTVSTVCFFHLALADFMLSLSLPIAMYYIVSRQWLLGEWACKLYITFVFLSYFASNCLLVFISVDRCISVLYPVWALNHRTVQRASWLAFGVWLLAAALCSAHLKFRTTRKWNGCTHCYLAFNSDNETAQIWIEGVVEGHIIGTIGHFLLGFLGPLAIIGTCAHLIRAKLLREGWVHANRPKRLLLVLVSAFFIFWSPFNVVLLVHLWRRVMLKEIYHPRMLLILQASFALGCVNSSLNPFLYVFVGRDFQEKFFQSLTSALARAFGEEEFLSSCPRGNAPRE
row,Compound,activation
1,COc1ccc(C)cc1S(=O)(=O)NCC(c1ccc(N(C)C)cc1)N1CCc2ccccc21 (centres undefined),inactive: -22.5%
2,COc1ccc(N2CCN(C(=O)c3cc4cc5ccc(Cl)cc5nc4o3)CC2)cc1,inactive: -1.34%
3,CN(c1ccccc1)c1ncnc2c1cnn2C,inactive: -8.6%
4,O=C(O)c1ccc(N2C(=O)c3[nH]nc(-c4ccccc4)c3C2c2cccc(F)c2)cc1 (centres undefined),inactive: 18.9%
5,CCC(=O)Nc1ccccc1-c1nc2ccccc2n(C(C)C(=O)Nc2ccc(OC)cc2)c1=O (centres undefined),inactive: -18.2%
6,CCNc1nc(Oc2ccc(=O)n(-c3ccccc3)n2)nc(N(C)C)n1,inactive: -11.3%
7,COc1cccc(-c2nc3c(c(C)nn3-c3ccccc3)c3cc(OC)c(OC)cc23)c1,inactive: -8.11%
8,CCc1ccc(C2C(C(=O)Nc3ccc(Cl)cc3)=C(C)Nc3ncnn32)cc1 (centres undefined),inactive: -31.5%
9,Cc1ccc2c(c1)C(=O)OC(C(=O)Nc1ncc(Cc3ccccc3)s1)C2 (centres undefined),inactive: -7.76%
10,Cc1ccc(NC(=O)Cn2c(=O)oc3cc(S(=O)(=O)N4CCC(C)CC4)ccc32)cc1Cl,inactive: 44.5%
11,Cc1cc(NC(=O)N2CCC(CN3CCOCC3)CC2)ccc1Br,inactive: -3.4%
12,COc1cccc(C2C(=O)N(C3CCCCC3)CC(=O)N2Cc2ccc(Cl)cc2)c1 (centres undefined),inactive: -21.1%
13,COC(=O)c1nnn(CC(=O)NC(=O)Nc2ccccc2F)c1C(=O)OC,inactive: 8.59%
14,Cc1noc(NS(=O)(=O)c2ccc(NC(=O)c3ccc(Br)cc3)cc2)c1C,inactive: 12.6%
15,Cc1c(Cl)cccc1NC(=O)c1ccc2nc(C(C)C)oc2c1,inactive: -2.43%
16,CCc1ccccc1Nc1nn2c(=O)c3ccc(C(=O)Nc4ccc(OC)cc4)cc3nc2s1,inactive: 1.3%
17,CCN1CCC(N(Cc2ccc(F)cc2)C(=O)Nc2cccc(C(F)(F)F)c2)CC1,inactive: -18.9%
18,O=C(CSc1nc2ccccc2nc1Cc1ccccc1)N1CCN(c2ccccc2)CC1,inactive: -5.89%
19,Cc1cccc(NC(=O)NCCOCCn2c(=O)oc3ccccc32)c1C,inactive: -12.7%
20,CC(=O)Nc1cc(-c2ccccc2)nn1Cc1cccc(Cl)c1,inactive: 14.7%
21,COc1cccc(CNC(=O)CCn2c(=O)c3cccn3c3cccnc32)c1OC,inactive: -12.2%
22,Cc1nn(CC(=O)NCC(C)c2ccccc2)c(=O)c2cc3ccccc3n12 (centres undefined),inactive: -12.9%
23,CCOc1ccc(CNC(=O)C2CCN(S(=O)(=O)c3ccc4c(ccn4C)c3)CC2)cc1,inactive: -14.1%
24,COc1cc2oc(=O)c(CC(=O)NCc3ccc(OC)c(OC)c3)c(C)c2cc1Cl,inactive: 24.7%
25,Cc1ccc(-c2noc(-c3ccc(N4CCCCC4C)c([N+](=O)[O-])c3)n2)cc1 (centres undefined),inactive: 25.8%
26,CCCCn1c(=O)c2oc3ccccc3c2n(Cc2cccc(C)c2)c1=O,inactive: -3.67%
27,Cc1c(Cl)cccc1NC(=O)c1cc2sccc2n1Cc1ccc(F)cc1,inactive: 0.0101%

row,Compound,activation
1,COc1ccc(N(C)C(=O)c2nc(-c3cccc(F)c3)n3c2CCCCC3)c(OC)c1,inactive: -23.3%
2,Cc1ccccc1NC(=O)CSc1cn(CC(=O)N2CCCC2)c2ccccc12,inactive: -15.7%
3,Cc1c(C(=O)Nc2ccc(-c3nc4cc(Cl)ccc4o3)cc2)oc2ccccc12,inactive: -22.4%
4,Cc1ccc(S(=O)(=O)N2CCc3cc(C(=O)NCCc4ccccc4)ccc32)cc1,inactive: -4.96%
5,Cc1ccc(-c2cc(-c3coc4ccccc4c3=O)c3c(n2)-c2ccccc2OC3)cc1,inactive: 0.759%
6,Cc1c(-c2cccc(NC(=O)Nc3ccccc3)c2)nc2ncccn12,active: 95.9%
7,CCOc1ccc(NC(=O)CN2CCN(C3CCCCC3)C(=O)C2=O)cc1,inactive: 17.4%
8,CCS(=O)(=O)N1CCC2(CC1)OC(=O)C(C)=C2C(=O)NCc1ccccc1C,inactive: -14.9%
9,Cc1cc(-c2ccc(S(=O)(=O)NCc3ccccc3Cl)s2)on1,inactive: 1.28%
10,COc1cccc(Cn2c(=O)cc(C)c3c(C)nn(-c4ccc(C)cc4)c32)c1,inactive: -12.7%
11,Cc1cccc(C(=O)N(Cc2ccco2)Cc2ccccc2F)c1,inactive: -36%
12,CC1CCCCN1C(=O)CSc1n[nH]c(-c2ccccc2)n1 (centres undefined),inactive: -3.36%
13,CC(=O)c1cccc(-n2c(=O)c3c4c(sc3n(CC(=O)c3ccc(Cl)cc3)c2=O)CN(C(C)=O)CC4)c1,inactive: -3.9%
14,CCOc1cc(C(=O)Nc2ccc(-c3nc4cc(Cl)ccc4o3)cc2)cc(OCC)c1OCC,inactive: -3.45%
15,O=c1[nH]c(C2CCCN(S(=O)(=O)c3ccccc3Cl)C2)nc2c1nnn2Cc1ccc(OC(F)(F)F)cc1 (centres undefined),inactive: -6.9%
16,Cn1cc(C(=O)NCCc2ccc(Cl)cc2)c(=O)c2cc(S(=O)(=O)N3CCOCC3)ccc21,inactive: -3.17%
17,COc1ccc(CNC(=O)CCCc2nnc3n(CCC(C)C)c(=O)c4sccc4n23)cc1,inactive: -9.72%
18,O=C(Nc1cccc(Cl)c1)c1cc(-c2ccccc2)on1,inactive: 18.3%
19,CCc1nn(CCCC(=O)N2CCN(c3ccc(OC)cc3)CC2)c(=O)c2cc3occc3n12,inactive: 3.24%
20,COc1ccc(CCNC(=O)c2ccc3c(c2)c(C)c(C)n3Cc2ccccc2)c(OC)c1OC,inactive: -17.5%
21,Cc1ccc(CCNC(=O)C2CC(=O)N(CCc3ccccc3)C2)cc1 (centres undefined),inactive: 1.07%
22,Cc1cccc(N2CCN(C(=O)Cn3ncc4c3-c3ccccc3OC4)CC2)c1C,inactive: 36.1%
23,CCOc1ccc(Nc2ncnc3c2nc2n3CCCCC2)cc1,active: 85.1%
24,COc1ccc(NC(=O)C2CCC(CNS(=O)(=O)c3ccc4c(c3)C(C)(C)C(=O)N4C)CC2)cc1 (centres undefined),inactive: -0.475%
25,Cc1cc(CC(=O)O)c(C)n1-c1ccc(Cl)cc1,inactive: -0.454%
26,Cn1cnc(S(=O)(=O)N2CCC(C(=O)Nc3ccc(C#N)cc3)CC2)c1,inactive: -11.6%
27,Clc1cccc(N2CCN(c3c4c(nc5nncn35)CCC4)CC2)c1,inactive: 19.4%
